# According to PMC6919601, “Identification of Plasmodium dipeptidyl aminopeptidase allosteric inhibitors by high throughput screening” (PLoS ONE, 2019):
# The campaign covered roughly 110,000 compounds. About 230 (0.21%) showed an effect of 50% or more. This is one part of the list.
# Molecular target: DPAP1 (Plasmodium falciparum, UniProt Q8IIJ9)
# Experiment: primary screen, percent inhibition; read by cleavage of a fluorogenic dipeptide substrate; higher = more effect of the substance
# Parameters: species or system P. falciparum D10 trophozoite lysates; single well
# 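Further: 30 min substrate incubation versus DMSO and 10 µM JCP410 controls.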
# Chain of DPAP1 (Q8IIJ9 whole entry, looked up): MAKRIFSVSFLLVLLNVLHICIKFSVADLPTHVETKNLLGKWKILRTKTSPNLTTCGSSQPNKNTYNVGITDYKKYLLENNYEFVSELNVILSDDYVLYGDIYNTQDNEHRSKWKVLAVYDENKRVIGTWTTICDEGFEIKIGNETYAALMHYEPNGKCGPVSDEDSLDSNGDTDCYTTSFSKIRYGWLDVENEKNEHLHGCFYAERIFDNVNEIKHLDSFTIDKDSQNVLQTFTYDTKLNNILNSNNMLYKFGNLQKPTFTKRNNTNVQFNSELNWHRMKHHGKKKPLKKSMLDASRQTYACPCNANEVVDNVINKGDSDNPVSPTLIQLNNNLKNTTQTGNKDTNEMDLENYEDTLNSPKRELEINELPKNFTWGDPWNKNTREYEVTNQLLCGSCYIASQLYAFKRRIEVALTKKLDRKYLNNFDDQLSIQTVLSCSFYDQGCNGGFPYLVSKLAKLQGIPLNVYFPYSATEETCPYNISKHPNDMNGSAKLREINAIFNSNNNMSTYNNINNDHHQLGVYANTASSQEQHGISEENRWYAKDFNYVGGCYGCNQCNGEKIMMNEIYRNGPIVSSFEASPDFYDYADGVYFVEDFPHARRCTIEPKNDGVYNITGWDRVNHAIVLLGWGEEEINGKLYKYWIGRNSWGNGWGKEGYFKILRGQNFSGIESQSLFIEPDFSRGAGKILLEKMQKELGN
row,Structure (SMILES),% Inhibition @ 10 uM [%]
1,COc1ccccc1NC(=O)CN(c1ccc(C)cc1)S(=O)(=O)c1ccccc1,-10.2
2,CC(C)c1ccc(NC(=O)[C@@H]2C[C@@H]2c2ccccc2)cc1,-1.93
3,CCOC(=O)C1CCN(Cc2ccc(OC)c(C)c2)CC1,-0.294
4,CSCCCN1CCCC(CO)C1 (stereo not shown),0.265
5,Cc1cccc(NC(=O)CN2C(=O)N/C(=C/c3ccc4c(c3)OCO4)C2=O)c1,-13.4
6,CCN1C(=O)c2ccc(C(=O)Nc3cc(C)on3)cc2C1=O,3.86
7,COc1ccc(CN2CCN(c3ccccc3F)CC2)cc1O,-5.57
8,COc1ccc(-c2cc(-c3ccccc3)nc3sc(C(N)=O)c(N)c23)cc1,76
9,CC(C)Cn1c(=O)c2ccccc2n2c(CCC(=O)NCCc3ccccc3)nnc12,-0.692
10,CCCCc1n[nH]c(SCC(=O)Nc2nnc(CC)s2)n1,-1.4
11,CCOC(=O)C1=C(C)N=c2s/c(=C\c3ccc(C)o3)c(=O)n2C1c1ccccc1Cl (stereo not shown),-1.66
12,CCOc1ccc(C2CC(c3ccc(OC(F)F)cc3)n3ncnc3N2)cc1Cl (stereo not shown),-7.08
13,COc1ccc(/C=C(/C#N)C(=O)Nc2cccc(C(F)(F)F)c2)cc1,-5.38
14,COc1ccc(C(=O)N[C@@H](Cc2cc(Cl)c(O)c(Cl)c2)C(=O)NCC#N)cc1,-8.26
15,O=C(O)CSC1CCCCC1O (stereo not shown),0.968
16,CC1(C)C=Cc2c(nc3ccccc3c2NCc2ccccc2)C1,3.16
17,COc1ccc(C(F)(F)F)cc1NC(=O)c1sc2nc(-c3ccncc3)ccc2c1N,3.5
18,CC1CN(C(=O)c2ccc(CNS(=O)(=O)c3cccc(C(F)(F)F)c3)cc2)CC(C)O1 (stereo not shown),3.56
19,Cc1ccc(-c2noc(CNc3cccc(C)c3)n2)cc1,-3.41
20,COc1ccc(C(=O)NC2(C(F)(F)F)C(=O)Nc3c2c(=O)[nH]c(=O)n3-c2ccc(C)cc2)cc1 (stereo not shown),1.93
21,COc1cc(C(=O)NC2(C(F)(F)F)NC(=O)N(C)C2=O)cc(OC)c1OC (stereo not shown),1.91
22,COc1ccc(/C=C2\Cc3ccccc3C2=O)c(OC)c1OC,-0.503
23,CN1C(=O)C(=N)c2c3ccccc3c(O)c3cccc1c23,-9.52
24,CSc1nc(-c2ccccc2)nc(N)c1C(C)=O,-2.47
25,Cc1cc(C)nc(Nc2n[nH]c(-c3cccc(Cl)c3)n2)n1,1.92

row,Structure (SMILES),% Inhibition @ 10 uM [%]
1,Cc1ccc(-n2nc3c(=O)n(CCCC(=O)NCCc4cccs4)nc(C)c3c2C)cc1,-4.57
2,CCCCC(=O)N1CCc2cc(OC)c(OC)cc2C1COc1ccc2c(C)cc(=O)oc2c1 (stereo not shown),2.83
3,COc1ccccc1C(=O)Nc1ccc2oc(-c3ccccc3C)nc2c1,2.54
4,COc1cc(/C=C/c2nc(C#N)c(N(C)Cc3ccccc3)o2)cc(OC)c1OC,0.895
5,COc1ccc(Cl)cc1N(CC(=O)Nc1ccc(Cl)cc1)S(C)(=O)=O,-7.09
6,CCOc1ccc2nc(SCc3ccc(OC)cc3)sc2c1,2.8
7,CC(O)c1nc2ccccc2n1Cc1ccccc1 (stereo not shown),2
8,CC(C)NS(=O)(=O)c1ccc(N2CCN(CCO)CC2)nc1,1.59
9,CC1CCCCC1NS(=O)(=O)c1ccc(S(=O)(=O)N2CCN(c3ncccn3)CC2)cc1 (stereo not shown),2.21
10,O=C(O)CCCN1C(=O)c2ccccc2Sc2ncccc21,1.63
11,COc1ccc(-c2c(C)nn3c(N4CCC(C(=O)NC5CCCC5)CC4)cc(C)nc23)cc1OC,-3.7
12,Cl/C(=C\c1ccccc1)CN1CCN(c2ccccc2Cl)CC1,3.48
13,N#C/C(=C\c1cccs1)C(=O)NCc1cccnc1,14.8
14,N#CCNC(=O)[C@H](Cc1ccc(Br)s1)NC(=O)OCc1ccccc1,-4.72
15,Cc1cc(C)nc(NC(=O)NS(=O)(=O)Nc2ccc(Br)cc2)n1,-0.999
16,CCOc1ccc(C2C(C(=O)c3ccc(OC)cc3)=C(O)C(=O)N2Cc2cccnc2)cc1OC (stereo not shown),3.8
17,Cc1ccc(N2C(N)=C(C#N)C(c3ccc(N(C)C)cc3)C3=C2CCCC3=O)cc1 (stereo not shown),4.08
18,COc1ccc(CN2CN=C(Nc3nc(C)c4ccc(C)cc4n3)NC2)cc1,2.1
19,CCOCCCNC(=O)CN1N=C(c2ccccc2)CCC1=O,3.79
20,CN1CC[C@@]2(O)CCCC[C@@H]2[C@H]1c1cccc(Cl)c1Cl,2.76
21,CCOc1ccccc1-n1c(S)nnc1-c1cccnc1,-3.21
22,COc1cccc(CN2CCc3c([nH]c4ccccc34)C2)c1,0.847
23,CC(=O)c1ccc(OCC(O)CN2CCN(CC(O)COc3ccc(C(C)=O)cc3)CC2)cc1 (stereo not shown),-6.69
24,CCC(C)NS(=O)(=O)c1ccc(Br)cc1 (stereo not shown),3.98
25,CC(C)OCCCNS(=O)(=O)c1csc(C(N)=O)c1,1.13

row,Structure (SMILES),% Inhibition @ 10 uM [%]
1,CC(Cc1c[nH]c2ccccc12)NC(=O)c1ccco1 (stereo not shown),3.16
2,CCN(CC)CCC(=O)OC1CC2CCC(C1)N2C (stereo not shown),-2.42
3,CCCCOC(=O)c1c(O)nc(C)c(Cl)c1C,0.503
4,CC1Nc2sccc2C(=O)N1c1ccccc1 (stereo not shown),1.15
5,CC(CCN1CCN(c2ccc(F)cc2)CC1)c1ccccc1 (stereo not shown),-4.04
6,Cc1nn(C)c(C)c1/C=C(/C(=O)C(C)C)n1cncn1,0.00706
7,CCC(C)N1C(=O)S/C(=C/c2ccc(N(CC)CC)o2)C1=O (stereo not shown),3.8
8,CC(C)(CNC(=O)c1cccc(F)c1)CNC(=O)c1cccc(F)c1,0.795
9,COc1ccc(Cl)cc1-n1c(S)nnc1-c1cc2occc2n1C,1.72
10,COc1cccc(C2C(C(=O)c3cccs3)=C(O)C(=O)N2CCc2ccccc2)c1 (stereo not shown),1.27
11,Cn1cccc1-c1nc2ccccc2n1C,-0.891
12,CCCCNCCP(=O)(O)OCC,2.41
13,CCCC(=O)Nc1ccc(S(=O)(=O)N2CCCCCC2)cc1,-2.24
14,Cc1cc2c(cc1C)-c1nnc(C(F)(F)F)n1C(C)(C)C2,4.38
15,CC1CCN(S(=O)(=O)c2ccc3nc(O)cc(C(=O)NCCN4CCOCC4)c3c2)CC1,-0.519
16,CCOc1ccc2nc(NC(=O)c3cccnc3)sc2c1,-0.28
17,OCCN1CCN(CC#CCC(c2ccccc2)c2ccccc2)CC1,0.774
18,Cc1ccc(S(=O)(=O)NCc2ccc(C(=O)NCCN(Cc3ccccc3)C(C)C)cc2)cc1,-4.53
19,Cc1ccc(CS(=O)(=O)Cc2ccc(C(=O)NCC3CCCO3)o2)cc1 (stereo not shown),-4.83
20,O=C(O)CC(NC(=O)c1ccco1)C(=O)O (stereo not shown),-5.35
21,O=C1NC(c2ccccc2)C(C(=O)c2cccs2)C(O)(C(F)(F)F)N1 (stereo not shown),-4.16
22,Cc1cccc(CCNC(=O)c2cc3c(O)nc4ccccc4c3n2C)c1,5.21
23,CC1=CC(C)(C)N(C(=O)CN2C(=O)c3ccccc3C2=O)c2ccccc21,0.317
24,Cc1nccc2nc(O)c(C(=O)NCc3ccc(Cl)cc3)cc12,-2.14
25,CCc1cc2c(cc3c(=O)n(CC(=O)N4CC(C)CC(C)C4)nc(CC)n32)s1 (stereo not shown),4.84

row,Structure (SMILES),% Inhibition @ 10 uM [%]
1,COc1ccccc1CN1CCN(Cc2c[nH]c3ccccc23)CC1,18.5
2,CC(=O)Nc1ccc(S(=O)(=O)NCC2CCCO2)cc1 (stereo not shown),-3.97
3,Cc1ccsc1C1CC(=O)NC(SCC(=O)Nc2ccc(Br)cc2)=C1C#N (stereo not shown),0.673
4,COc1ccccc1CNC(=O)c1cnn2c(C(F)F)cc(-c3ccc(C)cc3)nc12,2.22
5,COc1ccc(C(=O)Nc2nc(-c3nnn(-c4cc(Cl)ccc4OC)c3C)ns2)cc1,6.57
6,CC(NC(=O)CCC(=O)Nc1ccccc1O)c1ccccc1 (stereo not shown),-3.25
7,CCCC1CCC(c2nc(-c3ccc(OC(F)F)cc3)no2)CC1 (stereo not shown),-0.693
8,CCOc1ccccc1NC(=O)CSCC(=O)Nc1ccc(C)cc1,-1.61
9,COc1ccc(/C=C2\CCCC(C(=O)C(F)(F)F)=C2O)cc1,-0.169
10,Cc1ccc(-c2cc(C(=O)Nc3ccccc3F)c3ccccc3n2)o1,-6.59
11,O=C(N[C@@H](CCc1ccccc1)C(=O)c1nc2ccccc2o1)[C@H](CS(=O)(=O)Cc1ccccc1Cl)NC(=O)N1CCOCC1,-0.214
12,COc1ccc2[nH]c(C)c(CCNCc3cccc(OC)c3OC)c2c1,-7.5
13,N#Cc1ccccc1CSc1nnc(N)s1,2.8
14,COc1ccc(NC(=O)CN(c2ccc(C34CC5CC(CC(C5)C3)C4)cc2)S(C)(=O)=O)cc1,2.91
15,Cc1nc(C(=O)c2ccccc2C(F)(F)F)cc2c1[nH]c1ccccc12,1.42
16,Cc1ccc(-c2nc3ccccc3c(=O)n2-c2cccnc2)cc1,4.74
17,CC(CNc1nc2ccccc2c2nc(-c3cccnc3)nn12)c1ccccc1 (stereo not shown),2.6
18,COCCCNc1oc(-c2ccc(C)cc2)nc1C#N,-1.33
19,O=C(Nc1cccc(NC(=O)C2CC2)c1)C1CC1,-7.15
20,Cc1cccc2sc(NC(=O)C3CCCN(S(=O)(=O)c4cccc5nonc45)C3)nc12 (stereo not shown),-9.42
21,COc1cc(S(=O)(=O)N2CCc3ccccc3C2)c(OC)cc1Cl,-3.13
22,COc1ccc(C(=O)O)cc1COc1ccccc1Br,-10.9
23,c1ccc(-c2nc3sc4c(N5CCOCC5)ncnc4c3c3c2CCCC3)cc1,-3.13
24,CCCCNC(=O)COCc1cc(-c2ccc3c(c2)OCO3)on1,2.87
25,COCCNC(=O)Cn1ncc2c(C)n(Cc3ccc(F)cc3)c(C)c2c1=O,-0.447
